Data as given in paper PMC4242493.
Some of the results follow. The list includes weakly bound sequences.

The sequences below were run against MaxL homodimer (UniProt P61244) (assay: universal protein-binding microarray (PBM)). Conditions: PBS-based mixture, 10 nM His-tagged protein dimer, 2% milk, 200 ng/uL BSA, 50 ng/uL salmon testes DNA, 0.02% TX-100; detection with Alexa 488 anti-His …; high values mean tight binding; most listed sequences are background and not binding sites; double strand, one strand shown.
Sequence of UniProt P61244 (P61244 whole entry): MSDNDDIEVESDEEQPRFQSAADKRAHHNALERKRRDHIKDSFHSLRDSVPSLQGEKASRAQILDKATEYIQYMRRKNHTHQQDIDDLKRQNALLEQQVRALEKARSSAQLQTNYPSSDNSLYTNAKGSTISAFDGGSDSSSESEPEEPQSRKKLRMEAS
CTCATGCC showed a binding signal (normalized occupancy) of 0.0954.
For GCTTTAAA, the binding signal (normalized occupancy) was 0.0688.
With ATGCATTC the binding signal (normalized occupancy) was 0.0908.
In the case of CTTTACTA, the binding signal (normalized occupancy) is reported as 0.0697.
GAGGGGAA was tested, and the binding signal (normalized occupancy) was 0.0755.
GAAATACC showed a binding signal (normalized occupancy) of 0.0735.
CGGTTCCA was tested, and the binding signal (normalized occupancy) was 0.0708.
GTGTTATA was tested, and the binding signal (normalized occupancy) was 0.0829.
Work on AAGTTATT yielded a binding signal (normalized occupancy) of 0.0742.
Sequence GATCGCGC has a binding signal (normalized occupancy) of 0.0764.
GATGGCGA was tested, and the binding signal (normalized occupancy) was 0.0738.
Sequence CGCAACGC has a binding signal (normalized occupancy) of 0.0733.
AATTATGC was tested, and the binding signal (normalized occupancy) was 0.081.
For GGATTCAA, the binding signal (normalized occupancy) was 0.0767.
Sequence AGAGACCA has a binding signal (normalized occupancy) of 0.0683.
Work on TACCCATA yielded a binding signal (normalized occupancy) of 0.0845.
Sequence CACTATCG has a binding signal (normalized occupancy) of 0.0754.
TGAAGACA was tested, and the binding signal (normalized occupancy) was 0.0784.
CGATTTAC was tested, and the binding signal (normalized occupancy) was 0.0735.
For TGCCGTAA, the binding signal (normalized occupancy) was 0.0796.
Sequence GGATTGAA has a binding signal (normalized occupancy) of 0.0718.
Sequence CCCCTGTC has a binding signal (normalized occupancy) of 0.0787.
In the case of CCGTCTCC, the binding signal (normalized occupancy) is reported as 0.0692.
In the case of CGCCCGTC, the binding signal (normalized occupancy) is reported as 0.0676.
CAGTCTCG showed a binding signal (normalized occupancy) of 0.0705.
For CATACTTC, the binding signal (normalized occupancy) was 0.0816.
Sequence TGGTGAAA has a binding signal (normalized occupancy) of 0.0804.
ATGTCAAT gave a binding signal (normalized occupancy) of 0.0778.
CAGGTGCG showed a binding signal (normalized occupancy) of 0.0849.
Sequence TCGATTAA has a binding signal (normalized occupancy) of 0.0834.
Work on AGACACGC yielded a binding signal (normalized occupancy) of 0.0922.
GCGAATAC showed a binding signal (normalized occupancy) of 0.0754.
Work on GCCTTCCC yielded a binding signal (normalized occupancy) of 0.0737.
Sequence CGTGTCTC has a binding signal (normalized occupancy) of 0.0941.
CGCTACGA gave a binding signal (normalized occupancy) of 0.0757.
GGGAGCTA gave a binding signal (normalized occupancy) of 0.0726.
Sequence AAGAATCG has a binding signal (normalized occupancy) of 0.07.
CACTGCTA gave a binding signal (normalized occupancy) of 0.0717.
In the case of GGACCAAC, the binding signal (normalized occupancy) is reported as 0.0763.
AATACACG was tested, and the binding signal (normalized occupancy) was 0.0912.
Sequence CCACGCAG has a binding signal (normalized occupancy) of 0.0904.
With GCGGAGGA the binding signal (normalized occupancy) was 0.076.
For ACAGGTGG, the binding signal (normalized occupancy) was 0.0985.
Work on AGTCAGAT yielded a binding signal (normalized occupancy) of 0.0722.
AATCATTG showed a binding signal (normalized occupancy) of 0.0748.
With CTTCACAC the binding signal (normalized occupancy) was 0.0777.
For TCCTTACA, the binding signal (normalized occupancy) was 0.0842.
In the case of AAGCGTCC, the binding signal (normalized occupancy) is reported as 0.07.
Work on ATTAATCC yielded a binding signal (normalized occupancy) of 0.0734.
ATCCCGAA showed a binding signal (normalized occupancy) of 0.0714.
For GGGCTCTA, the binding signal (normalized occupancy) was 0.0735.
CGTGTTAC was tested, and the binding signal (normalized occupancy) was 0.0896.
CTTTAGCC showed a binding signal (normalized occupancy) of 0.0736.
TATCTTAA gave a binding signal (normalized occupancy) of 0.0728.
AAGTTGGT gave a binding signal (normalized occupancy) of 0.0732.
CGCCCACA showed a binding signal (normalized occupancy) of 0.0813.
In the case of GAAGTGAA, the binding signal (normalized occupancy) is reported as 0.0708.
Work on AGGTCACC yielded a binding signal (normalized occupancy) of 0.0702.
Sequence AATATAAC has a binding signal (normalized occupancy) of 0.0791.
In the case of ATGTTAAG, the binding signal (normalized occupancy) is reported as 0.084.
For ATTACAAC, the binding signal (normalized occupancy) was 0.0852.
GCCCCTGA was tested, and the binding signal (normalized occupancy) was 0.0732.
For CCTCACCG, the binding signal (normalized occupancy) was 0.0707.
Work on ATGCGAGC yielded a binding signal (normalized occupancy) of 0.0809.
Sequence AGCTGCAG has a binding signal (normalized occupancy) of 0.0729.
Work on GCCGCGGC yielded a binding signal (normalized occupancy) of 0.0708.
CATATGCA gave a binding signal (normalized occupancy) of 0.0978.
AGTGATTA showed a binding signal (normalized occupancy) of 0.0807.
AAGGCTAC gave a binding signal (normalized occupancy) of 0.0687.
With TACGCATA the binding signal (normalized occupancy) was 0.0842.
In the case of CAAAATAG, the binding signal (normalized occupancy) is reported as 0.0747.
ATTCGCTA showed a binding signal (normalized occupancy) of 0.075.
For TCTGTTAA, the binding signal (normalized occupancy) was 0.0739.
Sequence ATTCGTGA has a binding signal (normalized occupancy) of 0.0769.
CAGTCCCA was tested, and the binding signal (normalized occupancy) was 0.0778.
Sequence GCGGCACA has a binding signal (normalized occupancy) of 0.0751.
ATGTGCTC was tested, and the binding signal (normalized occupancy) was 0.0926.
Sequence ATTCCCTA has a binding signal (normalized occupancy) of 0.0755.
Sequence GTTGACCA has a binding signal (normalized occupancy) of 0.0733.
In the case of CTAGTGCC, the binding signal (normalized occupancy) is reported as 0.0687.
AGAGTGCT showed a binding signal (normalized occupancy) of 0.0771.
In the case of ATTGGGTG, the binding signal (normalized occupancy) is reported as 0.0767.
AACAACTG showed a binding signal (normalized occupancy) of 0.0714.
CCCAAGGG showed a binding signal (normalized occupancy) of 0.0673.
Sequence GTAGTTTA has a binding signal (normalized occupancy) of 0.0707.
CTCCGGAC was tested, and the binding signal (normalized occupancy) was 0.0726.
In the case of GTTGTAGA, the binding signal (normalized occupancy) is reported as 0.0719.
With ACTGGGAC the binding signal (normalized occupancy) was 0.0728.
Sequence GAGACGCA has a binding signal (normalized occupancy) of 0.0759.
GGGCGATA gave a binding signal (normalized occupancy) of 0.0769.
TGCGAGCA was tested, and the binding signal (normalized occupancy) was 0.0733.
Sequence AAGGTTTA has a binding signal (normalized occupancy) of 0.0757.
Sequence CAGTACCC has a binding signal (normalized occupancy) of 0.0847.
GTTAGTGA gave a binding signal (normalized occupancy) of 0.0792.
